Results reported in PubChem BioAssay AID485294 (National Center for Advancing Translational Sciences (NCATS), 2010).
The campaign covered roughly 370,000 compounds. About 150 (0.041%) were called active. The inconclusive results got no clear call from the source; some entries with a clear call stand among them for comparison. The call rests on the fitted dose curve; in most records, active means well fitted inhibition curve with a large enough effect; inconclusive means small, poorly fitted or top-dose-only effect; inactive means flat fitted curve, though single readings scatter. No potency is given beside an inconclusive call; the fits are too rough.

target: Beta-lactamase (Escherichia coli (strain K12)) (UniProt P00811); test: qHTS Inhibitors of AmpC Beta-Lactamase (assay with detergent); conditions: AmpC hydrolysis of nitrocefin, absorbance 480 nm, 0.01% Triton; activity change, negative = inhibition: at 114 µM (top of the series); further: nearly all actives have a fitted effect of over 25% in size;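 on activity change, negative = inhibition: 0% = no-compound wells and -100% = no-enzyme wells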
How it was run: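 AmpC (5.3 nM in the dispensed reagent) in 20 mM phosphate pH 7.0 with 0.01% (detergent screen) or 0.0001% Triton X-100 was preincubated with compounds for 15 min at room temperature. Nitrocefin was then added from an 800 uM solution, and hydrolysis was followed at 480 nm.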
Potency means the concentration at half of the fitted maximal effect; tags describe the fitted curve by direction and shape.

UniProt P00811, sequence (P00811 whole entry, looked up): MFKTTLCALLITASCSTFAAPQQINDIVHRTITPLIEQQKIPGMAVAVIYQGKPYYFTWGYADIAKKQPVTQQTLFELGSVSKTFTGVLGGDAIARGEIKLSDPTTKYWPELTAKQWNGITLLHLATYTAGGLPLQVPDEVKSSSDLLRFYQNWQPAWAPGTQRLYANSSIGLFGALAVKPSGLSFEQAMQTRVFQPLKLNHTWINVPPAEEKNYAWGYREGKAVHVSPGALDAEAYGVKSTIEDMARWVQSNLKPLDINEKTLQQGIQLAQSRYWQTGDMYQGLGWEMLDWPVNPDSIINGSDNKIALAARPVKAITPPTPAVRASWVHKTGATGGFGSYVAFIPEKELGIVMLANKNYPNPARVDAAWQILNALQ

Row | SMILES | Potency | activity change, negative = inhibition
1 | CCc1ccc(CNC(=O)c2nn(C)c3c2CS(=O)(=O)c2ccccc2-3)cc1 | inconclusive [inhibitor, partial curve, poor fit] | –
2 | COc1cccc(CNC(=O)Cn2ncc3c4ccccc4n(C)c3c2=O)c1 | – | inactive: 0.477%
3 | Cc1cc(C(=O)CSc2nnc(N)s2)c(C)n1C1CC1 | inconclusive [inhibitor, partial curve, poor fit] | –
4 | c1cn(-c2ncnc3sc4c(c23)CCCC4)cn1 | inconclusive [inhibitor, full curve, poor fit] | –
5 | Cn1cnc([N+](=O)[O-])c1S(=O)(=O)c1cccc(Cl)c1 | inconclusive [inhibitor, partial curve] | –
6 | Cc1cc(C(=O)OC(C(=O)Nc2cccc(C(F)(F)F)c2)c2ccccc2)c(C)o1 (stereo not given) | inconclusive [inhibitor, partial curve] | –
7 | Clc1ccc(-c2nc3ccc(Cl)cn3c2CN2CCOCC2)cc1 | inconclusive [inhibitor, full curve, poor fit] | –
8 | CC(C)/C=N\NC(=O)CCCCC(=O)N/N=C/C(C)C | inconclusive [inhibitor, full curve] | –
9 | COc1cc(NC(=O)c2cccs2)ccc1NC(=O)c1ccco1 | – | inactive: -5.39%
10 | O=Cc1c(Sc2ccccn2)nc2ccccn2c1=O | – | inactive: 0.818%
11 | Cc1ccc(CN2CCSCC2)cc1 | inconclusive [inhibitor, full curve, poor fit] | –
12 | Cc1cc(C)cc(OCc2ccc(C(=O)NC3CCOC3=O)o2)c1 (stereo not given) | inconclusive [inhibitor, full curve, poor fit] | –
13 | CCOc1cc(C(=O)NCc2ccc(C)cc2)ccc1OCC(=O)N1CCOCC1 | – | inactive: -13.6%
14 | COc1cccc(C(=O)Nc2ccc(C(F)(F)F)n(C)c2=O)c1 | – | inactive: -11%
15 | CCC(C)Cn1c(S(=O)(=O)O)nc2ccccc21 (stereo not given) | inconclusive [inhibitor, partial curve, poor fit] | –
16 | Oc1ccccc1N1CCN(Cc2ncc(-c3ccccc3)o2)CC1 | – | inactive: 4.76%
17 | Cc1nn(-c2ccccc2)c(C)c1CN(C)C(=O)c1ccc(S(=O)(=O)NCc2ccco2)cc1 | – | inactive: -2.42%
18 | CC(=O)N1CCC(N(CCN2CCOCC2)C(=S)Nc2cc(C)cc(C)c2)CC1 | inconclusive [inhibitor, full curve, poor fit] | –
19 | COc1ccc2c(c1OC)C(=O)OC2Nc1nc(-c2cc3ccccc3oc2=O)cs1 (stereo not given) | – | inactive: -4.8%
20 | COc1ccc(N2C(=O)CC(N3CCN(c4ccc(S(=O)(=O)N5CCCC5)cc4)CC3)C2=O)cc1 (stereo not given) | inconclusive [inhibitor, full curve, poor fit] | –
21 | CC(=O)Nc1ccc(S(=O)(=O)N2CCN(Cc3csc(C)n3)CC2)cc1 | inconclusive [inhibitor, full curve, poor fit] | –
22 | CSCC[C@@H](C(=O)NCCCCCCCCCCC(=O)N1CCN(C(=O)OC(C)(C)C)CC1)n1cc(CCO)nn1 | inconclusive [inhibitor, full curve, poor fit] | –
23 | O=C(CCn1c(=O)c2ccccc2n(Cc2cccc([N+](=O)[O-])c2)c1=O)N1CCc2ccccc2C1 | – | inactive: -18.9%
24 | COc1ccc(N(CC(=O)NCc2ccco2)C(=O)CCC(=O)Nc2ccccn2)cc1 | inconclusive [inhibitor, partial curve, poor fit] | –

Row | SMILES | Potency | activity change, negative = inhibition
25 | CCN1CCN(C(=O)c2cc3sccc3n2CC(=O)c2ccccc2)CC1 | inconclusive [inhibitor, full curve, poor fit] | –
26 | COCCN(CCOC)C(=O)CCn1c(=O)oc2ccccc21 | inconclusive [inhibitor, partial curve] | –
27 | CC(C)CCNC(=O)C1CC(=O)N(CCc2ccccc2)C1 (stereo not given) | – | inactive: -7.95%
28 | O=S(=O)(c1ccc(F)cc1)N1CCN(CC2CC3C=CC2C3)CC1 (stereo not given) | inconclusive [inhibitor, full curve] | –
29 | CN(C)c1ccc(NC(=O)c2ccc3nsnc3c2)cc1 | inconclusive [inhibitor, full curve, poor fit] | –
30 | Nc1c(Cl)cc([N+](=O)[O-])cc1Cl | inconclusive [inhibitor, full curve, poor fit] | –
31 | CN1C(=O)/C(=C/c2cccc(Cl)c2)Sc2ccc(C(=O)NCc3cccnc3)cc21 | – | inactive: 3.6%
32 | COc1ccc(OCc2cc(C(=O)N3CCN(CC(=O)N(C)C)CC3)no2)c(Cl)c1 | – | inactive: -11%
33 | O=C(NCc1ccccc1)N1CCNCC1 | inconclusive [inhibitor, full curve, poor fit] | –
34 | Cc1ccc(NC(=O)NCCCN2CCCC2=O)c(C)c1 | – | inactive: -3.39%
35 | Cc1cc(=O)[nH]c(-n2nc(C)cc2C)n1 | inconclusive [inhibitor, full curve] | –
36 | Cc1ccccc1N(Cc1nnc2n1CCCCC2)C(=O)Nc1ccccc1 | inconclusive [inhibitor, full curve, poor fit] | –
37 | Cn1c(CCN2CCCCC2)nc2cc(NC(=O)COc3ccc([N+](=O)[O-])cc3)ccc21 | inconclusive [inhibitor, full curve, poor fit] | –
38 | CC(=O)Nc1ccc(S(=O)(=O)/N=C2\C(=O)c3ccccc3C([O-])=C2n2cc[n+](-c3ccccn3)c2)cc1 | – | inactive: 3.81%
39 | Cc1sc(NC(=O)c2ccco2)c(C(c2ccc(F)cc2)N2CCN(C)CC2)c1C (stereo not given) | inconclusive [inhibitor, full curve, poor fit] | –
40 | Cn1c(=O)n(C)c2cc(N3CCOCC3)c(NC(=O)c3ccc(F)cc3)cc21 | – | inactive: -3.13%
41 | CCCC(c1nnnn1CCOC)N1CCN(C(=O)c2ccco2)CC1 (stereo not given) | inconclusive [inhibitor, partial curve, poor fit] | –
42 | COc1ccc(/C=N/N2CCN(C)CC2)cc1O | – | inactive: -7.35%
43 | N#Cc1ccccc1NC(=O)CSc1nnc(-c2ccccc2)n1-c1ccccc1 | inconclusive [inhibitor, full curve] | –
44 | CCOc1ccc(N/C(=C(/C(Cl)=C(Cl)Cl)[N+](=O)[O-])n2cncn2)cc1 | inconclusive [inhibitor, partial curve, poor fit] | –
45 | Cc1ccc(/C=N/NC(=O)c2cccs2)s1 | – | inactive: -11.2%
46 | COc1cc(/C=C(\C#N)C(=O)NCc2cccs2)ccc1O | inconclusive [inhibitor, full curve, poor fit] | –
47 | C=CCOc1ccc(-c2nc3c(c(=O)[nH]c(=O)n3CCCC)n2C)cc1Br | inconclusive [inhibitor, single point] | –
48 | Oc1ccc(-c2csc(-c3cccnc3)n2)cc1O | – | inactive: 2.67%

Row | SMILES | Potency | activity change, negative = inhibition
49 | O=C1/C(=C/Nc2ccc3c(c2)OCO3)CCc2ccccc21 | – | inactive: -0.0735%
50 | CC(NC(=O)Cc1ccc(NS(=O)(=O)c2cccc(C(F)(F)F)c2)cc1)c1ccccn1 (stereo not given) | – | inactive: -7.53%
51 | CCOC(=O)c1sc(NC(=O)c2cccnc2)nc1C | inconclusive [inhibitor, partial curve, poor fit] | –
52 | c1ccc(C[n+]2ccccc2)cc1 | – | inactive: -14.5%
53 | O=C(/C=C\c1cccs1)N1CCN(Cc2ccc3c(c2)OCO3)CC1 | inconclusive [inhibitor, partial curve] | –
54 | COc1ccc(OC)c(/C=C/C(=O)c2ccc3c(c2)OCCO3)c1 | inconclusive [inhibitor, full curve] | –
55 | Cc1c(C(N)=O)sc2nc(-c3ccccc3)cn12 | – | inactive: -5.02%
56 | O=C(c1ccc(S(=O)(=O)N2CCCCCC2)cc1)N(c1ccccn1)C1CCCCC1 | inconclusive [inhibitor, full curve, poor fit] | –
57 | CSCCC(NC(=O)/C(=C/c1ccc2c(c1)OCO2)NC(=O)c1cccc([N+](=O)[O-])c1)C(=O)O (stereo not given) | inconclusive [inhibitor, single point] | –
58 | O=C(Cn1nnc2sc3c(c2c1=O)CCCC3)Nc1ccc(F)c(Cl)c1 | inconclusive [inhibitor, single point] | –
59 | O=C(CN1CCN(Cc2ccccc2)C1=O)NCc1cccs1 | inconclusive [inhibitor, full curve, poor fit] | –
60 | Cc1csc(=N)n1CC(=O)N1CCc2ccccc21 | inconclusive [inhibitor, full curve, poor fit] | –
61 | CC(=O)Nc1cccc(NC(=O)CSc2ncc(C(=O)Nc3ccccc3)c(=O)n2C)c1 | inconclusive [inhibitor, full curve] | –
62 | COc1cccc(-c2nnc3n2N=C(c2cccc(Br)c2)CS3)c1 | inconclusive [inhibitor, partial curve, poor fit] | –
63 | C[C@@H]1NC(=O)/C(=C\c2ccccc2Br)NC1=O | – | inactive: -10.6%
64 | CC(C)OC(=O)c1nn2c(C(F)(F)F)cc(-c3ccc(Br)o3)nc2c1Br | inconclusive [inhibitor, full curve, poor fit] | –
65 | O=C(c1ccccc1)c1ccc(N2CCN(C(=O)c3cccc(F)c3F)CC2)c(F)c1 | – | inactive: 0.461%
66 | CCN(CC)c1ccc(NC(=O)CSc2nc3ccccc3c(=O)n2-c2cc(S(=O)(=O)N(C)C)ccc2C)cc1 | – | inactive: -6.73%
67 | CN(c1ccccc1)S(=O)(=O)c1ccc(NC(=O)c2ccccc2)cc1 | inconclusive [inhibitor, partial curve] | –
68 | Cc1ccc(NC(=S)Nc2cccc(S(=O)(=O)Nc3c(C)n(C)n(-c4ccccc4)c3=O)c2)cc1 | – | inactive: 0.951%
69 | COc1ccccc1C(=O)NCCC(=O)N1CCN(c2ccccc2O)CC1 | – | inactive: -13.6%
70 | CCOc1ccccc1NC(=O)C1CCCN(S(=O)(=O)c2ccc(OC)c(C)c2)C1 (stereo not given) | inconclusive [inhibitor, full curve, poor fit] | –
